Measurements taken from publication PMC4336329 (PLoS ONE, 2015).
The whole screen tested about 310,000 compounds, of which about 2,200 (0.71%) showed an effect of 50% or more. Effects have a minus sign here. Some of the results follow.

target: human ether-à-go-go-related gene (hERG) potassium channel (human, UniProt Q12809); test: primary screen, population patch clamp on CHO cells stably expressing hERG
Sequence (Q12809 whole entry, looked up): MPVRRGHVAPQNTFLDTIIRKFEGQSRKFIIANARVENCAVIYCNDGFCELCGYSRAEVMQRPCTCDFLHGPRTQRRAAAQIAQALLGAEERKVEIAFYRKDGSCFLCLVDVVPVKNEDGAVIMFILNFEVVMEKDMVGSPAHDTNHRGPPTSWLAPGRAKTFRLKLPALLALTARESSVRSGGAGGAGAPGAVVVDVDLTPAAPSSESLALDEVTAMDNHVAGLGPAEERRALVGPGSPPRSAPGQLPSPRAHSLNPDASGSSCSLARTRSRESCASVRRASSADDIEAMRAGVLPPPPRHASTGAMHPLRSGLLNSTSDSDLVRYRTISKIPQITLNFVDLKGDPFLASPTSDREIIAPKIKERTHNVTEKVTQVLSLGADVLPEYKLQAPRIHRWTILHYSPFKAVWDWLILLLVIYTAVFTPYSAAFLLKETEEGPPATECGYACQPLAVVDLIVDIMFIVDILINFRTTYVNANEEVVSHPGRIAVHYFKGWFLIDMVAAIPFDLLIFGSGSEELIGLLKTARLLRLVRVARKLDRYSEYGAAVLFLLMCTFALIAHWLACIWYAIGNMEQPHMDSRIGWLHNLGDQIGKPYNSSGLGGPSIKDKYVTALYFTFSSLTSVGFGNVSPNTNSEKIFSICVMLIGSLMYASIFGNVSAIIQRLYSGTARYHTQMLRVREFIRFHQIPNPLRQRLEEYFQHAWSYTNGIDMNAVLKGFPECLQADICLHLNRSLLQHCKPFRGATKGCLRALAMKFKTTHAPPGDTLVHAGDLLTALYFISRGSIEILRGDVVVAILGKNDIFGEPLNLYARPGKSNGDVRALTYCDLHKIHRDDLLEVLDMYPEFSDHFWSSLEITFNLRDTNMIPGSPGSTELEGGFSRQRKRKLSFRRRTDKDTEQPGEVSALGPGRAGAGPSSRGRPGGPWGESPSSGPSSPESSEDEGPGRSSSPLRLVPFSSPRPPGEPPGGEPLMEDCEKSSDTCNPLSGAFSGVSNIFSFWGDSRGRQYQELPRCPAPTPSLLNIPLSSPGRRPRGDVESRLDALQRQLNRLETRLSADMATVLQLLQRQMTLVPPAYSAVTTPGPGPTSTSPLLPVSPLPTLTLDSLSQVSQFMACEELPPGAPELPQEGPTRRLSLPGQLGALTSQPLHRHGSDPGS

Row | SMILES | hERG current change (%, negative = inhibition) at 1uM [%]
1 | Cc1ccc(-c2cc(C(F)F)n3ncc(C(=O)NCc4ccco4)c3n2)cc1 | 8.75
2 | COc1ccc(CCCc2n[nH]c(=S)o2)cc1 | 9.17
3 | CC(OC(=O)C1=Cc2ccccc2OC1)C(=O)NCc1ccco1 (centres unmarked) | 10.6
4 | O=C1c2ccccc2C(=O)N1CCc1nn[nH]n1 | 15.2
5 | O=C(Nc1ccon1)c1csc2ccccc12 | 10.9
6 | Cc1ccc(N(C(=O)Cn2nnc3ccccc32)C(C(=O)NCc2ccccc2)c2ccccn2)cc1 (centres unmarked) | 2.5
7 | CC1CCCN(C(=O)COC(=O)c2ccc(=O)n(Cc3ccccc3)n2)C1 (centres unmarked) | 11.7
8 | CCc1nc(C)cn1S(=O)(=O)c1ccc([N+](=O)[O-])cc1 | 8.97
9 | Cc1cc(C)nc(NC(=O)CSc2nnnn2-c2ccccc2)n1 | -4.26
10 | CSCCC(N=CC1=C(O)CC(C)(C)CC1=O)C(=O)O (centres unmarked) | 7.35
11 | Cn1c(=O)c2c(nc(SCCN3CCOCC3)n2Cc2ccc(F)cc2)n(C)c1=O | -4.01
12 | CCN(CCn1cccn1)C(=O)CCc1nnc(Cc2c[nH]c3ccccc23)o1 | 3.23
13 | CCCn1c(/N=C/c2ccccc2O)nc2ccccc21 | 21
14 | CN(C(=O)c1ccco1)c1nc(-c2ccccc2)cs1 | 10.4
15 | C[N+]1(CCN2C(=O)C3CC=C(Cl)CC3C2=O)CCOCC1.[Br-] (centres unmarked) | 10.4
16 | COC(=O)c1cc(=O)n(CCc2ccccc2F)c(=Nc2ccc(F)c(Cl)c2)s1 | 13.1
17 | CCOc1ccc(-c2nnn(CC(=O)NCc3ccco3)n2)cc1OCC | -7.4
18 | COC(=O)C1CSC(C)(C)C(=O)N1 (centres unmarked) | 8.39
19 | CCOC(=O)N1CCC(Nc2c(NCCCN(CC)c3cccc(C)c3)c(=O)c2=O)CC1 | 6.98
20 | O=S(=O)(NCCc1cccs1)c1ccc(Br)cc1 | -3.21

Row | SMILES | hERG current change (%, negative = inhibition) at 1uM [%]
21 | O=C(Nc1nc2ccsc2c(=O)s1)C1CCC1 | 7.31
22 | COc1ccc(NC(=O)c2ccc(Cl)c(S(=O)(=O)N3CCc4ccccc4C3)c2)cn1 | -0.996
23 | Cc1ccccc1-n1c(SCC(=O)N/N=C/C=C/c2ccccc2[N+](=O)[O-])nc2ccccc2c1=O | 11
24 | CCCN1C(=O)C(Cc2nc3ccccc3c(=O)n2C)c2ccccc21 (centres unmarked) | 3.08
25 | Cc1ccc(NS(=O)(=O)c2cc(N)ccc2Cl)c(C)c1 | 3.91
26 | Cc1ccc(NC(=O)Cn2nnc(-c3ccccc3NC(=O)c3cccs3)n2)cc1 | 23
27 | O=C(c1ccco1)N(Cc1ccc(Cl)cc1)C1CCS(=O)(=O)C1 (centres unmarked) | -2.75
28 | COC(=O)c1ccc(C(=O)OC)c(NC(=O)CCC(=O)O)c1 | 2.44
29 | Cc1onc(-c2ccccc2Cl)c1NC(=O)NCc1cccs1 | 4.83
30 | COc1ccc(-c2nc(CN3CCN(Cc4cccc(Cl)c4)CC3)c(C)o2)cc1 | 17.2
31 | CC(Oc1ccccc1)C(=O)NC1CCN(Cc2ccccc2)CC1 (centres unmarked) | -5.84
32 | COC(=O)c1c(NC(=O)CN2CCN(C(=O)c3ccco3)CC2)c2cc(C)ccc2n1C | 13.7
33 | COC(=O)Cc1cc(OC)c(OC)cc1S(=O)(=O)N(C)C | 3.4
34 | Clc1ccc2nc(N3CCCCC3)sc2c1 | 12.2
35 | CCNC(=O)CSc1nnc(C2CC2)n1-c1ccccc1 | 8.39
36 | Cc1cc(C(=O)CC#N)c(C)n1-c1c(C)n(C)n(-c2ccccc2)c1=O | 14.3
37 | Cc1ccccc1N(Cc1ccccc1F)S(C)(=O)=O | 0.682
38 | CCOCCCNC(=O)C1CCCN(S(=O)(=O)c2ccc(-n3cnnn3)cc2)C1 (centres unmarked) | -0.875
39 | CCN(CC)S(=O)(=O)c1cc(Br)ccc1OC | 8.87
40 | CCOC(=O)c1cnc(SCC(=O)N2CCN(c3ccccc3)CC2)nc1N | -3.43

Row | SMILES | hERG current change (%, negative = inhibition) at 1uM [%]
41 | O=C(NCc1cc(C(F)(F)F)cc(C(F)(F)F)c1)C1CC(c2ccccc2[N+](=O)[O-])=NO1 (centres unmarked) | 0.283
42 | CCCCCCSC1=C(C#N)C(c2ccccc2)CC(=O)N1 (centres unmarked) | 5.54
43 | S=C1NC2(CCCCC2)N=C1c1ccccc1 | 6.68
44 | Cc1ccc(NC(=S)Nc2cccnc2)c(S(=O)(=O)N2CCCCC2)c1 | 11.4
45 | Cc1cccc(C)c1OCc1cc(C(=O)N2CCC(c3ccccc3)CC2)no1 | 12.4
46 | CN(C1CCCCC1)S(=O)(=O)c1ccc(=S)[nH]c1 | 10.9
47 | Cc1ccc(N2CCN(/N=C/c3cccnc3)CC2)cc1 | 9.56
48 | COc1ccccc1N1CCN(CCN2C(=O)CC3(CCCC3)CC2=O)CC1.Cl | 4.34
49 | CC(C)(C)c1ccc(NC(=O)Nc2ccc(F)cc2)cc1 | 13
50 | Cc1ccc(NC(=O)CCl)cc1S(=O)(=O)N1CCCCCC1 | -22.9
51 | CCOc1ccc(N(CC(=O)NCc2ccc(OC)cc2)C(=O)CCC(=O)Nc2nccs2)cc1 | 5.97
52 | COc1ccccc1NC(=O)CSc1n[nH]c(-c2cccnc2)n1 | 14.5
53 | O=C(CNC(=O)c1ccc(Br)o1)OCc1ccc(Br)cc1 | 13.9
54 | COc1ccc(CCNCC(O)COc2ccc(Cl)cc2)cc1OC.Cl (centres unmarked) | -56
55 | CCc1nn(C(C)C(=O)N2CCc3ccccc3C2)c(=O)c2cc3occc3n12 (centres unmarked) | -1.41
56 | CCC(C)[C@H](N)C(=O)NCC1CCC(C(=O)N[C@@H](Cc2ccccc2)C(=O)O)CC1.Cl (some centres unmarked) | 4.48
57 | CC(C)(C)NC(=O)CCCCCCCC(=O)NC(C)(C)C | 9.26
58 | Nn1c(SCC(=O)NCc2ccc3c(c2)OCO3)nnc1C1CC1 | 16.6
59 | COc1ccc(CSc2cccc3cccnc23)cc1[N+](=O)[O-] | 13.8
